First the molecules themselves.
B1: LINE1-mini (parent)
chain: GGCAGAGCUCAACACAGCGUGGCAAAGUGGCUGUGGCUAGACUGCC

Read counts are not given, so values of variants with three or more changes are uncertain.

The variants in this series derive from B1. In words: self-cleavage, relative activity (ratio to wild type); higher = more cleavage; in vitro, sequencing; the parent is a self-cleaving ribozyme.
As for G2U C10A A11C U28C A39G, the self-cleavage was found to be 0.01.
Regarding G2U C3A U38G, the self-cleavage is 0.02.
The value for G2U C10A G44C was 0.07; that for G2U C15G A16G C31U A41U was 0; that for G2U C18U G19A G35U was 0.05.
For G2U G7A C8U A25C G29C U34C G36A, the self-cleavage came out at 0.05.
G2U C23G G30U A41U: the self-cleavage amounted to 0.
The value for G2U C8U A14C G22C was 0.04; that for G2U C10U G30A C31A was 0.02.
On to G2U G7C C8U C45A, for which the self-cleavage turned out to be 0.02.
With G2U C3A G30U G35A, the self-cleavage was 0.07.
The figure for G2U C10A G30A U38A is 0.02; for G2U C10U C15U G17C G44A C45U C46G it is 0.01.
G2U C10U C18G U20G: the self-cleavage amounted to 0.
For the variant G2U C10A A41G C42U, the self-cleavage came to 0.
The value for G2U C8G U9G G29A G30U G35U U38C was 0.01; that for G2U C8U G30C A41U was 0.16; that for G2U G7A A24C U32A was 0.01.
Take G2U A14U U28G G29U G33C: the self-cleavage came to 0.02.
For the variant G2U A16U U20A G27A C37A U38C, the self-cleavage amounted to 0.01.
The figure for G2U C3A G21C A39U is 0.07.
For the variant G2U A16G G17C C18U U28G C42U, the self-cleavage turned out to be 0.
With G2U C8G G21U G22C C46U, the self-cleavage came to 0.03.
Turning to G2U C8U G21U, the self-cleavage was found to be 0.69.
As to G2U C8U G21C, the self-cleavage worked out at 0.03.
Regarding G2U C3A A39C, the self-cleavage worked out at 0.23.
As for G2U A26C G29A G33C, the self-cleavage turned out to be 0.03.
The value for G2U G5A C10A A11C C18U was 0.02; that for G2U C10G A16U U20A G21C U34A G36U was 0.
Consider G2U C3A U9G C15U, for which the self-cleavage was 0.41.
For G2U C23U U34C C37G, the self-cleavage stood at 0.06.
Regarding G2U C8G A12U G40A, the self-cleavage came to 0.03.
In the case of G2U C3A G21A A25G C37U, the self-cleavage amounted to 0.59.
With G2U G5C C23U, the self-cleavage is 0.02.
As to G2U C13U U20A A25G, the self-cleavage worked out at 0.03.
G2U C10U A14C A26C G27A: the self-cleavage amounted to 0.01.
For the variant G2U G5U C15U C18A G27C, the self-cleavage came to 0.02.
For the variant G2U C3U U9C A24C G27C C37U A39G, the self-cleavage came out at 0.01.
For the variant G2U C13G C45G, the self-cleavage amounted to 0.01.
The value for G2U C13U C18G A25U U38C was 0.02.
The figure for G2U C8U U32A U34C G40U is 0.03; for G2U C3G A14C A16U it is 0.02; for G2U C3U A4U G19C A25C U28A U38C it is 0.01.
For the variant G2U C10A G29U U32A G33C, the self-cleavage was 0.
Consider G2U G7U A41C, for which the self-cleavage was determined as 0.02.
In the case of G2U C18U G30A, the self-cleavage came out at 0.59.
For the variant G2U G7A C8A U32A U34A C37G U43A, the self-cleavage worked out at 0.01.
As to G2U C3U G40A, the self-cleavage came out at 0.04.
The figure for G2U G5U A16U is 0.02.
On to G2U A26G G40A, for which the self-cleavage was found to be 0.05.
Turning to G2U G5U G29U G30A, the self-cleavage is 0.04.
The value for G2U A16G C23A G36A A39U G40U was 0.03.
Regarding G2U G5U G22C G27U U34A, the self-cleavage was 0.02.
As to G2U C8G G22U, the self-cleavage amounted to 0.02.
Take G2U A24C C42U: the self-cleavage turned out to be 0.02.
For G2U C8G A12G C18A A24C G33A U34C G35U, the self-cleavage came to 0.
Take G2U C3A C18G G19A U32A G40C: the self-cleavage amounted to 0.06.
As to G2U G5U U43C C45U, the self-cleavage was found to be 0.02.
In the case of G2U C23G G29A, the self-cleavage was found to be 0.1.
G2U G5A C23A G30C G33C: the self-cleavage is 0.04.
Turning to G2U C3A A41U, the self-cleavage amounted to 0.27.
For G2U C18G U43C, the self-cleavage was determined as 0.02.
On to G2U G7A C18A G19U G21C G36U G40U, for which the self-cleavage turned out to be 0.07.
As for G2U C3A A6U U20G G29C C37A, the self-cleavage worked out at 0.03.
As for G2U C23A C31A G33U A39G A41C, the self-cleavage stood at 0.05.
The figure for G2U C15U G27A A41U is 0.04; for G2U C23U G33C it is 0.03; for G2U C10A G40A it is 0.
The value for G2U C8A A12G A25U was 0.23.
The figure for G2U C42A U43C is 0.42; for G2U C10G G30U U43C it is 0.02; for G2U C8A A14U C31U it is 0.05.
Turning to G2U C8G A11G, the self-cleavage was 0.
G2U C18A G21C C23U: the self-cleavage was found to be 0.07.
Take G2U C8G G17C C46A: the self-cleavage was found to be 0.03.
In the case of G2U G5U C31G U34G C45U, the self-cleavage came out at 0.
Turning to G2U G7C G22A C31U, the self-cleavage came out at 0.03.
With G2U A16G G19U U20G C37G U38G, the self-cleavage is 0.01.
As for G2U C23A C46G, the self-cleavage was found to be 0.04.
The value for G2U C18A G27U was 0.03.
Consider G2U C3A G7U G29C, for which the self-cleavage turned out to be 0.01.
Regarding G2U C13U G17A G27U C31U, the self-cleavage came out at 0.01.
On to G2U G5U A14G A41C, for which the self-cleavage turned out to be 0.01.
The figure for G2U C3U U20G G33U A41U is 0.03; for G2U A24U C31A C46U it is 0.
For the variant G2U C10A A11C G33C, the self-cleavage amounted to 0.
As for G2U G7C C10A G22U C46A, the self-cleavage was 0.
For G2U C15A U34G G40U C45U, the self-cleavage was determined as 0.
As for G2U C10U G33U G35C, the self-cleavage was 0.03.
Regarding G2U C10A U28G G30A U34C, the self-cleavage is 0.01.
With G2U C10A C18A C23U G36A, the self-cleavage worked out at 0.01.
As for G2U G5A U20A G29U, the self-cleavage turned out to be 0.01.
As for G2U C3A A11G, the self-cleavage turned out to be 0.04.
For the variant G2U C8G C13A G22A G30C, the self-cleavage turned out to be 0.03.
The figure for G2U A24U G33C is 0.01.
With G2U A24G G40A G44A, the self-cleavage was 0.07.
With G2U G7U A12C U20A G21U, the self-cleavage was 0.02.
Take G2U C15U A24G C31U U43C: the self-cleavage was determined as 0.01.
On to G2U C8G G27C G30U G36C, for which the self-cleavage stood at 0.01.
As for G2U G5U C23G U38G A41G, the self-cleavage came out at 0.07.
The value for G2U C15U U32G G40U was 0.03; that for G2U C8G U28C was 0.01; that for G2U C15U C37A G44A was 0.08.
For G2U G5U G35U A39C, the self-cleavage turned out to be 0.01.
For G2U C10A G33C, the self-cleavage stood at 0.01.
Consider G2U C10A G33A, for which the self-cleavage worked out at 0.03.
For the variant G2U C10A G29C G40A, the self-cleavage came to 0.01.
The value for G2U C13G G27A C31U was 0.03; that for G2U C8A G21C G36U was 0.04.
On to G2U C3U A11G A24U A26G G40U C46G, for which the self-cleavage came out at 0.02.
Take G2U C3A G5A U38A: the self-cleavage came to 0.16.
The figure for G2U C18U G21C U38A G44U is 0.05; for G2U C18A G21U U34C it is 0.04.
The figure for G2U G5U G7U G19A A26U is 0.18; for G2U A14C G22U G29C it is 0.01; for G2U A14U C23G U32C C45U it is 0.01.
The value for G2U C15U A25C G40U G44U was 0.31.
Turning to G2U C8A C10U, the self-cleavage is 0.02.
On to G2U C10U A26C G27A, for which the self-cleavage is 0.02.
Take G2U C31G U32C: the self-cleavage was 0.03.
Take G2U C18A G30U: the self-cleavage was determined as 0.15.
In the case of G2U C10A A12C, the self-cleavage worked out at 0.02.
Regarding G2U G5U U28C, the self-cleavage is 0.02.
On to G2U G5U U28A, for which the self-cleavage was determined as 0.04.
The figure for G2U C18A C23G C31G U32C C37A is 0.02; for G2U C3G A4U C8A G35U it is 0.06.
G2U A16C C18G C31A C42A: the self-cleavage amounted to 0.
The value for G2U C8A G27A C42U was 0.04; that for G2U C15A A24C A25C U43C was 0.
For G2U A16G A25G A39C, the self-cleavage worked out at 0.02.
In the case of G2U A24G C31G G40U, the self-cleavage was 0.05.
For the variant G2U C13U G22U C23U G36U, the self-cleavage is 0.1.
The value for G2U G7A G27U G33U was 0.04; that for G2U A39U C45U was 0.02; that for G2U C13A C42A G44U was 0.04.
Regarding G2U C8A A12C G27A U32A G36C, the self-cleavage was 0.01.
Turning to G2U G7A C42G, the self-cleavage amounted to 0.04.
The figure for G2U A16G A25U C37U is 0.03; for G2U G5C G33A G35C it is 0.02.
In the case of G2U G7C A25G G36U, the self-cleavage turned out to be 0.02.
For G2U G7U A12C, the self-cleavage turned out to be 0.02.
On to G2U C3A C13A C15U A26C, for which the self-cleavage stood at 0.11.
Regarding G2U A12U G22A C31G, the self-cleavage came out at 0.01.
Turning to G2U C3A C8G C13U A14C C45G, the self-cleavage is 0.01.
Consider G2U C13A C15U G21U G33A, for which the self-cleavage amounted to 0.03.
With G2U C8G G30U C31A, the self-cleavage amounted to 0.03.
On to G2U C13G G30A, for which the self-cleavage turned out to be 0.05.
In the case of G2U C15G C18U G22U, the self-cleavage is 0.05.
The value for G2U C3G A41G was 0.02; that for G2U G7C U20G G33U A41C was 0.04; that for G2U C8U A14C A16C U34G G40U U43C was 0.02.
For the variant G2U A16U G17A, the self-cleavage turned out to be 0.03.
With G2U C18A A25U G30A U38C, the self-cleavage is 0.01.
For the variant G2U G5C G7U U20A, the self-cleavage amounted to 0.02.
The value for G2U G7A G35U G44C was 0.3.
The value for G2U C3U G7U A12U G30A was 0.2; that for G2U A25U G44A was 0.04.
Turning to G2U G5U A12G C15U, the self-cleavage turned out to be 0.02.
As to G2U G5U G33U, the self-cleavage worked out at 0.01.
For the variant G2U C10A G21U G30C, the self-cleavage came out at 0.02.
As to G2U C3U G5U C18G, the self-cleavage came to 0.05.
For the variant G2U C8U C10G G35U C37A, the self-cleavage is 0.01.
As to G2U A16U G19U A39U, the self-cleavage is 0.02.
With G2U C13A G22U, the self-cleavage is 0.01.
Regarding G2U C8A A14C U20G G22A A24U, the self-cleavage is 0.13.
Consider G2U C10G G29C, for which the self-cleavage came out at 0.03.
Consider G2U A26U G30U C31U, for which the self-cleavage was 0.02.
